According to PubChem BioAssay (Tox21):
Several values for one entry are separate records, joined by “and”; a condition that tells them apart may be missing. Identical values can stand only once. The inconclusive results got no clear call from the source; some entries with a clear call stand among them for comparison. Where the call is inconclusive, the potency comes from a doubtful curve fit. Activity calls are given as the source filed them. The call rests on the fitted dose curve; in most records, active means well fitted curve in the direction sought with a large enough effect in the repeat runs; inconclusive means weak or mixed curves; inactive means no such curve, though single readings can be large; an effect the other way counts as inactive or inconclusive.

Test system: not listed separately
Test: Caspase-3/7 induction in HepG2 cells by small molecules, qHTS cell viability counter screen (AID 1346981); further: nearly all actives have a fitted effect of over 30% in size
Settings: CellTiter-Fluor fluorescence, 17 h; series mostly up to 92.4 µM
How it was run: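 HepG2, WT, 2,000 cells/well; 5 hr pre-incubation 37 C/5% CO2; compound pin-transferred from DMSO; 16 hr exposure; CellTiter-Fluor, 1 hr; fluorescence read.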
Potency means the concentration at half of the fitted maximal effect; tags describe the fitted curve by direction and shape.

Compound	Potency
C1CCC(C(CC2CCCCN2)C2CCCCC2)CC1 (stereo unspecified)	active: 29.8 µM
CN1CC[C@H](c2c(O)cc(O)c3c(=O)cc(-c4ccccc4Cl)oc23)[C@H](O)C1	active: 0.335 µM
CN1CCN(C2=Nc3cc(Cl)ccc3Nc3ccccc32)CC1	active: 23.7 µM
OCCN1CCN(CCCN2c3ccccc3Sc3ccc(Cl)cc32)CC1	active: 26.6 µM
CN1CCN(CCC(=O)N2c3ccccc3Sc3ccc(C(F)(F)F)cc32)CC1	active: 29.8 µM
CCCCCCCCCCCCCCCC[N+](C)(C)CCN(Cc1ccc(OC)cc1)c1ncccn1	inconclusive: 33.5 µM [cytotoxic, single point]
O=C1Cc2ccccc2N1c1c(Cl)cccc1Cl	inconclusive: 77 µM [cytotoxic, single point]
NC(N)=Nc1nc(CSCC/C(N)=N/S(N)(=O)=O)cs1	inconclusive: 54.5 µM [cytotoxic, partial curve]
CN1CCCN(C(c2ccccc2)c2ccc(Cl)cc2)CC1 (stereo unspecified)	active: 23.7 µM
COc1ccc2cc(S(=O)(=O)N[C@H](CC(=O)N[C@H](Cc3ccc(CN4[C@H](C)CCC[C@@H]4C)cc3)C(=O)N(C)C(C)C)c3ccc4c(c3)OCO4)ccc2c1	active: 29 µM
CCCCCCCCOc1ccccc1C(=O)Nc1ccc(C(=O)OCC[N+](C)(CC)CC)cc1	inconclusive: 29.8 µM [cytotoxic, single point]
COc1cc(C=C2CCC/C(=C\c3ccc(O)c(OC)c3)C2=O)ccc1O	active: 29.8 µM
CNC(=O)c1cc(Oc2ccc(NC(=O)Nc3ccc(Cl)c(C(F)(F)F)c3)cc2)ccn1	inconclusive: 33.5 µM [cytotoxic, single point]
Brc1cc(Br)c(Oc2cc(Br)c(Br)cc2Br)cc1Br	inactive

Biological target: Nuclear receptor subfamily 1 group I member 2 (Homo sapiens) (UniProt O75469)
Test: Human pregnane X receptor (PXR) small molecule agonists, qHTS assay (AID 1346982); further: nearly all actives have a fitted effect of over 35% in size
Settings: PXR-Luc HepG2, CYP3A4 luciferase reporter, 24 h; series mostly up to 92.4 µM
How it was run: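 Luciferase signal from ONE-Glo (30 min, room temperature) measured activation of hPXR-driven CYP3A4 reporter expression in PXR-Luc HepG2 cells treated with compounds for 24 hr at 37 C.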

Compound	Potency
O=C1CC2CC1C1CCCC21 (stereo unspecified)	inconclusive: 68.6 µM [activator, partial curve]
CN1CCN(CCCN2c3ccccc3Sc3ccc(S(=O)(=O)N(C)C)cc32)CC1	inconclusive: 9.44 µM [activator, partial curve]
CCCCC=O	inactive
Cc1cc(N)n(-c2ccccc2)n1	inconclusive: 30.6 µM [activator, partial curve]
O=C(O)CCCCCCCC(=O)O	inactive

Biological target: Nuclear receptor subfamily 1 group I member 2 (Homo sapiens) (UniProt O75469)
Test: Human pregnane X receptor (PXR) activation by small molecules, qHTS assay (AID 1346985); further: nearly all actives have a fitted effect of over 40% in size
Settings: DPX-2 HepG2 CYP3A4-luciferase, 24 h; series mostly up to 38.3 µM
How it was run: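 DPX-2 cells (HepG2 co-transfected with a PXR response element and a CYP3A4-promoter luciferase construct) were seeded at 2,000 per well, rested 5 hr at 37C, then exposed to DMSO-dissolved compounds for 24 hr. Activation was read as luciferase luminescence.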

Compound	Potency
CN1CCN(CCC(=O)N2c3ccccc3Sc3ccc(C(F)(F)F)cc32)CC1	active: 15.8 µM
Cc1nc(Nc2ncc(C(=O)Nc3c(C)cccc3Cl)s2)cc(N2CCN(CCO)CC2)n1	inconclusive: 0.126 µM [activator, full curve, poor fit]
COc1cc(C=C2CCC/C(=C\c3ccc(O)c(OC)c3)C2=O)ccc1O	inconclusive: 28.2 µM [activator, single point]

Biological target: Cytochrome P450 2D6 (Homo sapiens) (UniProt P10635)
Test: Cytochrome P450 Family 2 Subfamily D Member 6 (CYP2D6) small molecule antagonists: luciferase reporter qHTS assay (AID 1671196); further: nearly all actives have a fitted effect of over 50% in size
Settings: P450-Glo CYP2D6 enzyme assay, luciferin luminescence, 1 h; series mostly up to 115 µM
How it was run: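 Read-out is luminescence from luciferin formed by CYP2D6 turnover of a proluciferin substrate, recorded as relative luminescence units. Reactions ran 1 h at room temperature after NADPH regeneration solution was added.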

UniProt P10635, sequence (P10635 whole entry, looked up): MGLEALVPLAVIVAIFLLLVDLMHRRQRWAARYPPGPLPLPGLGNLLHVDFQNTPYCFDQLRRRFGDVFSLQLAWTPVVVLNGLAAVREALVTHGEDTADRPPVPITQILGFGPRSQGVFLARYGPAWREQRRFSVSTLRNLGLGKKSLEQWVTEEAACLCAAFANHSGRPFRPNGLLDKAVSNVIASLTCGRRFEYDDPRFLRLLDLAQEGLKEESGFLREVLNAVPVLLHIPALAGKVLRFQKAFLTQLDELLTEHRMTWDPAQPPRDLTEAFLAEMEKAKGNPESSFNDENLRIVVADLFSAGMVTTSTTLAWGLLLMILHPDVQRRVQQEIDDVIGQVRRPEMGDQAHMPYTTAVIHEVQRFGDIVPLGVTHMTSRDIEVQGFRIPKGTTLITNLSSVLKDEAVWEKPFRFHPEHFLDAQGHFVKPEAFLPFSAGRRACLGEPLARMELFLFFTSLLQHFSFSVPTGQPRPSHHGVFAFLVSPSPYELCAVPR

Compound	Potency
CN1CC[C@H](c2c(O)cc(O)c3c(=O)cc(-c4ccccc4Cl)oc23)[C@H](O)C1	inconclusive: 15.5 µM [inhibitor, partial curve]
CN1CCN(CCC(=O)N2c3ccccc3Sc3ccc(C(F)(F)F)cc32)CC1	active: 0.155 µM
CCCCCCCCCCCCCCCC[N+](C)(C)CCN(Cc1ccc(OC)cc1)c1ncccn1	active: 15.5 µM
C#CCN(C)Cc1ccccc1	inconclusive: 39.9 µM [inhibitor, partial curve] and inconclusive: 38.9 µM [inhibitor, single point]
O=C1Cc2ccccc2N1c1c(Cl)cccc1Cl	inconclusive: 39.9 µM [inhibitor, partial curve]
NC(N)=Nc1nc(CSCC/C(N)=N/S(N)(=O)=O)cs1	inconclusive: 35.6 µM [inhibitor, partial curve]
CCN(CCN)c1cccc(C)c1	active: 2.54 µM and active: 10 µM
COc1ccc2cc(S(=O)(=O)N[C@H](CC(=O)N[C@H](Cc3ccc(CN4[C@H](C)CCC[C@@H]4C)cc3)C(=O)N(C)C(C)C)c3ccc4c(c3)OCO4)ccc2c1	active: 0.169 µM
NC(=O)c1ccccc1O	inactive
CCCCCCCCCc1ccc(OCCOCCO)cc1	active: 23.6 µM
Cc1cc(N)n(-c2ccccc2)n1	inconclusive: 35.6 µM [inhibitor, partial curve]
C=C[Si](OC(=C)C)(OC(=C)C)OC(=C)C	inactive

Biological target: Cytochrome P450 2C19 (Homo sapiens) (UniProt P33261)
Test: Cytochrome P450 Family 2 Subfamily C Member 19 (CYP2C19) small molecule antagonists: luciferase reporter qHTS assay (AID 1671197); further: nearly all actives have a fitted effect of over 65% in size
Settings: P450-Glo CYP2C19 enzyme, luciferin luminescence, 1 h; series mostly up to 115 µM
How it was run: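 Enzyme-substrate mix with proluciferin substrate (P450-Glo CYP2C19 system) preincubated with compounds 10 min at room temperature; NADPH regeneration solution added, 37C for 1 h; detection reagent stops reaction, luminescence read after 20 min. Ketoconazole positive control.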

UniProt P33261, sequence (P33261 whole entry, looked up): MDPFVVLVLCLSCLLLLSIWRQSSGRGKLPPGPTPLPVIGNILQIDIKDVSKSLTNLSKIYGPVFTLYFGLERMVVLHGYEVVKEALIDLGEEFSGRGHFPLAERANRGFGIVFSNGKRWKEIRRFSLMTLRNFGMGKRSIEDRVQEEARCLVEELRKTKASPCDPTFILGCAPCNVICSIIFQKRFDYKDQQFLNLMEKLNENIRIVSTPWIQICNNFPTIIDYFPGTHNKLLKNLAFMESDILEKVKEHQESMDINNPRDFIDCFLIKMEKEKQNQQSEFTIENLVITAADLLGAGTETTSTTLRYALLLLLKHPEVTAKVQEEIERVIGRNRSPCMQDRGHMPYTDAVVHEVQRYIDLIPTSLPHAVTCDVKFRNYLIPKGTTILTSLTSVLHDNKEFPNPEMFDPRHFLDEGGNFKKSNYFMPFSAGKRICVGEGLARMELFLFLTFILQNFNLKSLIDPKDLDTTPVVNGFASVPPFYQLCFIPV

Compound	Potency
O=C1CC2CC1C1CCCC21 (stereo unspecified)	inactive
CN1CCCC(CC2c3ccccc3Sc3ccccc32)C1 (stereo unspecified)	active: 7.76 µM
CN1CCN(CCC(=O)N2c3ccccc3Sc3ccc(C(F)(F)F)cc32)CC1	inconclusive: 34.7 µM [inhibitor, single point]
CCCCCCCCCCCCCCCC[N+](C)(C)CCN(Cc1ccc(OC)cc1)c1ncccn1	inconclusive: 38.9 µM [inhibitor, single point]
C#CCN(C)Cc1ccccc1	inconclusive: 89.4 µM [inhibitor, single point]
COc1ccc2cc(S(=O)(=O)N[C@H](CC(=O)N[C@H](Cc3ccc(CN4[C@H](C)CCC[C@@H]4C)cc3)C(=O)N(C)C(C)C)c3ccc4c(c3)OCO4)ccc2c1	inconclusive: 84.6 µM [inhibitor, single point]
C=C[Si](OC(=C)C)(OC(=C)C)OC(=C)C	active: 39.9 µM
